B1: hIL18Ra-anti-hIL18 ScFv-Fc (Fc fusion)
chain: CTSRPHITVVEGEPFYLKHCSCSLAHEIETTTKSWYKSSGSQEHVELNPRSSSRIALHDCVLEFWPVELNDTGSYFFQMKNYTQKWKLNVIRRNKHSCFTERQVTSKIVEVKKFFQITCENSYYQTLVNSTSLYKNCKKLLLENNKNPTIKKNAEFEDQGYYSCVHFLHHNGKLFNITKTFNITIVEDRSNIVPVLLGPKLNHVAVELGKNVRLNCSALLNEEDVIYWMFGEENGSDPNIHEEKEMRIMTPEGKWHASKVLRIENIGESNLNVLYNCTVASTGGTDTKSFILVRKADMADIPGHVFTRGGGGSGGGGSGGGGSEIQLQQSGPELVKPGASVKVSCKASGYSFTDYFIYWVKQSHGKSLEWIGDIDPYNGDTSYNQKFRDKATLTVDQSSTTAFMHLNSLTSEDSAVYFCARGLRFWGQGTLVTVSAGGGGSGGGGSGGGGSDIQMTQSPSSLSASLGERVSLTCRASQDIGSKLYWLQQEPDGTFKRLIYATSSLDSGVPKRFSGSRSGSDYSLTISSLESEDFVDYYCLQYASSPYTFGGGTKLAIKRSG[not shown - human IgG1 Fc]
notes: Tested as CHO supernatant; also called hIL-18Rα-(G4S)3-anti-hIL-18 scFv-Fc; construct (1)
B2: anti-hIL18 ScFv-hIL18Rα-Fc (Fc fusion)
chain: EIQLQQSGPELVKPGASVKVSCKASGYSFTDYFIYWVKQSHGKSLEWIGDIDPYNGDTSYNQKFRDKATLTVDQSSTTAFMHLNSLTSEDSAVYFCARGLRFWGQGTLVTVSAGGGGSGGGGSGGGGSDIQMTQSPSSLSASLGERVSLTCRASQDIGSKLYWLQQEPDGTFKRLIYATSSLDSGVPKRFSGSRSGSDYSLTISSLESEDFVDYYCLQYASSPYTFGGGTKLAIKRGGGGSGGGGSGGGGSCTSRPHITVVEGEPFYLKHCSCSLAHEIETTTKSWYKSSGSQEHVELNPRSSSRIALHDCVLEFWPVELNDTGSYFFQMKNYTQKWKLNVIRRNKHSCFTERQVTSKIVEVKKFFQITCENSYYQTLVNSTSLYKNCKKLLLENNKNPTIKKNAEFEDQGYYSCVHFLHHNGKLFNITKTFNITIVEDRSNIVPVLLGPKLNHVAVELGKNVRLNCSALLNEEDVIYWMFGEENGSDPNIHEEKEMRIMTPEGKWHASKVLRIENIGESNLNVLYNCTVASTGGTDTKSFILVRKADMADIPGHVFTRSG[not shown - human IgG1 Fc]
notes: Tested as CHO supernatant; also called anti-hIL-18 scFv-(G4S)3-hIL-18Rα-Fc; construct (2)
B3: hIL18Rα-Fc (Fc fusion)
chain: CTSRPHITVVEGEPFYLKHCSCSLAHEIETTTKSWYKSSGSQEHVELNPRSSSRIALHDCVLEFWPVELNDTGSYFFQMKNYTQKWKLNVIRRNKHSCFTERQVTSKIVEVKKFFQITCENSYYQTLVNSTSLYKNCKKLLLENNKNPTIKKNAEFEDQGYYSCVHFLHHNGKLFNITKTFNITIVEDRSNIVPVLLGPKLNHVAVELGKNVRLNCSALLNEEDVIYWMFGEENGSDPNIHEEKEMRIMTPEGKWHASKVLRIENIGESNLNVLYNCTVASTGGTDTKSFILVRKADMADIPGHVFTRSG[not shown - human IgG1 Fc]
notes: also called construct (5); hIL-18Rα alone
B4: anti-hIL18 ScFv-Fc (Fc fusion)
chain: EIQLQQSGPELVKPGASVKVSCKASGYSFTDYFIYWVKQSHGKSLEWIGDIDPYNGDTSYNQKFRDKATLTVDQSSTTAFMHLNSLTSEDSAVYFCARGLRFWGQGTLVTVSAGGGGSGGGGSGGGGSDIQMTQSPSSLSASLGERVSLTCRASQDIGSKLYWLQQEPDGTFKRLIYATSSLDSGVPKRFSGSRSGSDYSLTISSLESEDFVDYYCLQYASSPYTFGGGTKLAIKRSG[not shown - human IgG1 Fc]
notes: Tested as CHO supernatant; also called construct (6); anti-hIL-18 ScFv alone
B5: hIL18Rα-Fc-anti-hIL18 ScFv (Fc fusion)
chain: CTSRPHITVVEGEPFYLKHCSCSLAHEIETTTKSWYKSSGSQEHVELNPRSSSRIALHDCVLEFWPVELNDTGSYFFQMKNYTQKWKLNVIRRNKHSCFTERQVTSKIVEVKKFFQITCENSYYQTLVNSTSLYKNCKKLLLENNKNPTIKKNAEFEDQGYYSCVHFLHHNGKLFNITKTFNITIVEDRSNIVPVLLGPKLNHVAVELGKNVRLNCSALLNEEDVIYWMFGEENGSDPNIHEEKEMRIMTPEGKWHASKVLRIENIGESNLNVLYNCTVASTGGTDTKSFILVRKADMADIPGHVFTRSG[not shown - human IgG1 Fc]EIQLQQSGPELVKPGASVKVSCKASGYSFTDYFIYWVKQSHGKSLEWIGDIDPYNGDTSYNQKFRDKATLTVDQSSTTAFMHLNSLTSEDSAVYFCARGLRFWGQGTLVTVSAGGGGSGGGGSGGGGSDIQMTQSPSSLSASLGERVSLTCRASQDIGSKLYWLQQEPDGTFKRLIYATSSLDSGVPKRFSGSRSGSDYSLTISSLESEDFVDYYCLQYASSPYTFGGGTKLAIKR
notes: No linker between components is stated; also called construct (3)
B6: anti-hIL18 ScFv-Fc-hIL18Rα (Fc fusion)
chain: EIQLQQSGPELVKPGASVKVSCKASGYSFTDYFIYWVKQSHGKSLEWIGDIDPYNGDTSYNQKFRDKATLTVDQSSTTAFMHLNSLTSEDSAVYFCARGLRFWGQGTLVTVSAGGGGSGGGGSGGGGSDIQMTQSPSSLSASLGERVSLTCRASQDIGSKLYWLQQEPDGTFKRLIYATSSLDSGVPKRFSGSRSGSDYSLTISSLESEDFVDYYCLQYASSPYTFGGGTKLAIKRSG[not shown - human IgG1 Fc]CTSRPHITVVEGEPFYLKHCSCSLAHEIETTTKSWYKSSGSQEHVELNPRSSSRIALHDCVLEFWPVELNDTGSYFFQMKNYTQKWKLNVIRRNKHSCFTERQVTSKIVEVKKFFQITCENSYYQTLVNSTSLYKNCKKLLLENNKNPTIKKNAEFEDQGYYSCVHFLHHNGKLFNITKTFNITIVEDRSNIVPVLLGPKLNHVAVELGKNVRLNCSALLNEEDVIYWMFGEENGSDPNIHEEKEMRIMTPEGKWHASKVLRIENIGESNLNVLYNCTVASTGGTDTKSFILVRKADMADIPGHVFTR
notes: No linker between components is stated; also called construct (4)

Results on six molecules are retold here after patent US20050074855A1 (Regeneron, published 2005).

The experiment addresses T1, human IL-18 (human, UniProt Q14116 37-193).
T1 construct: Soluble analyte injected over the captured fusion proteins in the BIAcore assay; also called hIL-18; hIL18
The experiment can be described thus: SPR (BIAcore 2000), fusion captured by anti-human Fc, hIL-18 injected.
For the molecule B1, binding was put at a Kd of 0.053 nM, the koff was found to be 2.12e-05 s⁻¹ and the kon is 400000 M⁻¹ s⁻¹.

The molecule B2 showed a Kd of 0.042 nM, a koff of 1.61e-05 s⁻¹ and a kon of 387000 M⁻¹ s⁻¹.

B3 gave a Kd of 4.18 nM, a koff of 0.00653 s⁻¹ and a kon of 1.56e+06 M⁻¹ s⁻¹.

As for B4, the Kd was found to be 0.193 nM, the koff came out at 4.65e-05 s⁻¹ and the kon turned out to be 241000 M⁻¹ s⁻¹.

With B5, the Kd stood at 0.092 nM, the koff turned out to be 3.7e-05 s⁻¹ and the kon was 404000 M⁻¹ s⁻¹.

Turning to B6, the Kd was found to be 0.137 nM, the koff was determined as 3.9e-05 s⁻¹ and the kon came out at 285000 M⁻¹ s⁻¹.
